Measured values from PubChem BioAssay AID1030 (National Center for Advancing Translational Sciences (NCATS), 2008).
In all, about 220,000 compounds went through this assay and about 16,000 (7.3%) were called active. The shares of active, inactive and inconclusive entries below differ from those in the screen. The call rests on the fitted dose curve; in most records, active means well fitted inhibition curve with a large enough effect (not every such curve was filed as active); inconclusive means small, poorly fitted or top-dose-only effect, or another doubt; inactive means no such curve, though single readings can be large or run the other way. No potency is given beside an inconclusive call; the fits are too rough.

molecular target: Aldehyde dehydrogenase 1A1 (Homo sapiens) (UniProt P00352); assay: qHTS Assay for Inhibitors of Aldehyde Dehydrogenase 1 (ALDH1A1); conditions: Purified ALDH1A1, NADH fluorescence, propionaldehyde substrate; series mostly up to 75.3 µM;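 on activity, negative = inhibition: plate controls were no enzyme wells and a reference inhibitor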
Potency means the concentration at half of the fitted maximal effect; tags describe the fitted curve by direction and shape.

Sequence of UniProt P00352 (P00352 whole entry, looked up): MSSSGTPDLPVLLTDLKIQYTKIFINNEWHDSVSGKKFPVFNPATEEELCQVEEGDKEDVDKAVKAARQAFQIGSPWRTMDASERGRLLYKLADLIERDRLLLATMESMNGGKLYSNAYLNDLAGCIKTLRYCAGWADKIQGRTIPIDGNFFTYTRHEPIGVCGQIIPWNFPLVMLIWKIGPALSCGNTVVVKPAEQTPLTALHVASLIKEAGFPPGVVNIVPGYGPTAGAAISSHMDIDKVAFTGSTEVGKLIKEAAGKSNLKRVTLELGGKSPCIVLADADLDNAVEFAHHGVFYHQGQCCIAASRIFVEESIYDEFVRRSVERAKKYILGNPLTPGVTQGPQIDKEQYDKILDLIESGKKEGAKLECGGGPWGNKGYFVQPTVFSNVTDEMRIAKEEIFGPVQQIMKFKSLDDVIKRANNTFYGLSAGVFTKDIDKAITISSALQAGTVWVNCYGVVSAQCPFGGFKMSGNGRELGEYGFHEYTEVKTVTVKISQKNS

SMILES	Potency	activity, negative = inhibition
COc1ccc(CNC(=O)c2ccc3c(c2)NC(=O)C(C)S3)cc1 (stereo unspecified)	active: 10 µM	
Cc1nn(-c2ccccc2)c(C)c1C(=O)OCC(=O)NC(=O)NC1CCCC1	inactive	
c1ccc2c(N3CCOCC3)nc(-c3ccoc3)nc2c1	inconclusive [inhibitor, partial curve]	
O=C(c1ccc2c(c1)OCO2)N1CCCC(c2ccccc2)C1 (stereo unspecified)	inconclusive [inhibitor, partial curve]	
Cc1ccc(-c2nnc(CSc3nnc(COc4ccccc4)n3-c3ccc(C)cc3)o2)cc1	inconclusive [inhibitor, full curve]	
Cc1ccc2nc(NC(=O)CN3C(=O)C4CC=CCC4C3=O)sc2c1 (stereo unspecified)	inactive	
CCCS(=O)(=O)N1CCC(C(=O)NCCCOCC)CC1	inconclusive [inhibitor, partial curve]	
NC(=O)C1(N2CCCCC2)CCN(C(=O)c2cccn3c(=O)c4cc(Cl)ccc4nc23)CC1	inconclusive [inhibitor, single point]	
COc1cccc(OCCCOc2ccc([N+](=O)[O-])cc2Cl)c1	inactive	
CCc1nc2ccc(C)cc2c(C(=O)NC2CCCCC2C)c1C (stereo unspecified)	inactive	
O=C(CCCCn1c(=O)c2ccccc2n(CC(=O)NC2CCCC2)c1=O)NCc1ccco1	inconclusive [inhibitor, single point]	
CCONC(=NC)c1nonc1N	inactive	
CCN(CC)c1ccc(/C=C(/C#N)C(=O)NC(C)C)o1	active: 10 µM	
O=C1CCCC/C1=C\Nc1ccc(O)cc1	active: 14.1 µM	
O=C(/C=C/c1ccc2c(c1)OCO2)c1ccc[nH]1	inactive	
CCN(CC)S(=O)(=O)c1ccc2c(c1)nc(SCC(N)=O)n2-c1ccc(OC)cc1	inconclusive [inhibitor, single point]	
O=C(CN1CCSCC1)N/N=C/c1cccc(Cl)c1	inconclusive [inhibitor, single point]	
O=C(Nc1ccccc1)N1CCC(c2ccccc2)C1 (stereo unspecified)	inactive	
CCSC1=NCCN1S(=O)(=O)c1ccc(F)cc1	inactive	
CN1CCN(C(=O)c2ccc3c(=O)n(Cc4ccco4)c(=S)[nH]c3c2)CC1	inconclusive [inhibitor, single point]	
Cc1cc(C(=O)CSc2nnc(-c3ccco3)o2)c(C)n1CC1COc2ccccc2O1 (stereo unspecified)	inconclusive [inhibitor, single point]	
CS(=O)(=O)N(CC(=O)Nc1ccc2c(c1)OCCO2)c1ccc2c(c1)OCO2	inconclusive [inhibitor, partial curve]	
COc1cc(NC(=S)NC(=O)CC(C)C)ccc1NC(=O)c1cc2ccccc2o1	inconclusive [inhibitor, single point]	
O=C(CN1CCc2ccccc2C1)Nc1cccc(S(=O)(=O)N2CCCC2)c1	inconclusive [inhibitor, single point]	

SMILES	Potency	activity, negative = inhibition
O=C(CSc1ccc2c(c1)OCCO2)NCc1ccco1	active: 14.1 µM	
CC(C)Oc1ccc(C(=O)O)c(C(=O)O)c1	inconclusive [inhibitor, single point]	
O=c1c(-c2cc(F)cc(F)c2)nc2cnc(N3CCNCC3)nc2n1Cc1ccc(F)cc1	inconclusive [inhibitor, partial curve]	
CCOc1ccccc1NC(=O)c1oc2ccccc2c1NC(=O)C1CCCO1 (stereo unspecified)	inconclusive [inhibitor, single point]	
CCOc1ccc(S(=O)(=O)NN)cc1	active: 2 µM	
CC1CCCCN1CC(=O)Nc1sc2c(c1C#N)CCC2 (stereo unspecified)	inconclusive [inhibitor, single point]	
O=C(COC(=O)c1n[nH]c2ccccc12)Nc1ccc(S(=O)(=O)N2CCCC2)cc1	inconclusive [inhibitor, single point]	
CC(Cc1ccccc1)C(=O)NCCc1c[nH]c2ccccc12 (stereo unspecified)	inconclusive [inhibitor, single point]	
O=C(Nc1nc(-c2ccccc2)cs1)c1cccc(S(=O)(=O)N2CCN(Cc3ccccc3)CC2)c1	inconclusive [inhibitor, single point]	
Cc1cc(=O)oc2cc(OCC(=O)c3ccc4c(c3)NC(=O)CO4)ccc12	inconclusive [inhibitor, partial curve]	
CN(C)Cc1cc(C(C)(C)C)ccc1-c1ccc(C(C)(C)C)cc1CN(C)C		inactive: 4.48% [at 13.5 µM]
COc1cccc(/C=C2/SC(=O)N(CC(=O)N3CCc4ccccc4C3)C2=O)c1OCC(=O)O	inconclusive [inhibitor, single point]	
O=c1c(-c2cccc(Cl)c2)nc2cncnc2n1Cc1ccccc1Cl	inactive	
CC1CCN(c2c([N+](=O)[O-])nn(-c3ccc4c(c3)OCCO4)[n+]2[O-])CC1	inconclusive [inhibitor, partial curve]	
CC(C)(C)c1cc(C(C)(C)C)cc(S(=O)(=O)CCc2ccccn2)c1	inconclusive [inhibitor, partial curve]	
Cc1ccc(S(=O)(=O)NCC(=O)NC2CCCC2)cc1	inactive	
O=C1C=CC(=Nc2cccc3c(N=C4C=CC(=O)O4)cccc23)O1	inconclusive [inhibitor, single point]	
CCCCN(C(=S)NC(=O)c1ccccc1)c1c(N)n(Cc2ccccc2)c(=O)[nH]c1=O	inconclusive [inhibitor, single point]	
CCSC1=C(C#N)C(c2ccc3c(c2)OCO3)C2=C(CCCC2=O)N1 (stereo unspecified)	inconclusive [inhibitor, partial curve]	
COc1ccc(Nc2nnc(SCC3CCCO3)s2)cc1 (stereo unspecified)	inactive	
COc1ccc(OC)c(/C=N/NC(=O)CNC(=O)c2ccc(S(=O)(=O)N3CCOCC3)cc2)c1	inconclusive [inhibitor, single point]	
CC(C)=CCC/C(C)=C/CO/N=C1/[C@H]2O[C@@H]2[C@@H](O)[C@H]2[C@H]1CCn1c(=O)n(Cc3cc4c(cc3Cl)OCO4)c(=O)n12		inactive: 18.4% [at 13.5 µM]
O=C(O)COc1ccc(Nc2ccccc2)cc1	inconclusive [inhibitor, single point]	
Cc1ccc(C2(O)CN(c3ccccc3C)C3=[N+]2CCS3)cc1 (stereo unspecified)	active: 20 µM	

SMILES	Potency	activity, negative = inhibition
COc1cccc(C(=O)NCCSc2ccc(Br)cc2)c1	inconclusive [inhibitor, partial curve]	
COC(=O)c1c(C)[nH]c(C)c1-c1ccccc1Cl	inactive	
CC(COC(=O)c1ccccc1)(COC(=O)c1ccccc1)/[N+]([O-])=C/c1ccccc1	inconclusive [inhibitor, single point]	
COc1ccc2c(C)nc(N/C(N)=N/S(=O)(=O)c3ccc(C)cc3)nc2c1	inconclusive [inhibitor, single point]	
CCC(=O)N1CCc2cc(Br)cc(S(=O)(=O)CC(=O)OC)c21	inconclusive [inhibitor, partial curve]	
COC(=O)c1ccc2c(c1)C(C)(C)C(/C=C/c1ccccc1O)=[N+]2C	inconclusive [inhibitor, full curve]	
COC(=O)c1ccccc1S(=O)(=O)N1CCc2nc(-c3ccc(OC)cc3C)c3c(c2C1)CO[C@@H](c1ccccc1)C3	active: 3.98 µM	
CCc1cc(-c2n[nH]c(=S)n2-c2ccccc2C)cs1	active: 8.91 µM	
Cc1ccc(S(=O)(=O)N2CCN(C(=O)CCN3C(=O)c4ccccc4C3=O)CC2)cc1C	inconclusive [inhibitor, single point]	
CC1=C(C#N)C(=O)NC(=O)/C1=C\c1ccc(-c2ccc(C)cc2[N+](=O)[O-])o1	active: 12.6 µM	
COc1cccc(CNc2ccc(S(N)(=O)=O)cc2)c1OC	inactive	
CN(C)CCCOc1ccc(C(C)(C)c2ccccc2)cc1	inconclusive [inhibitor, partial curve]	
CCCCn1c(NCc2ccc(N(C)C)cc2)nc2ccccc21	active: 14.1 µM	
CCOc1ccc(NC(=O)CN2CCN(CC(=O)Nc3ccc(C(=O)OC)cc3)CC2)cc1	active: 7.08 µM	
Cc1ccc2nc(-c3ccc(SCC(=O)O)nc3)[nH]c2c1	inconclusive [inhibitor, partial curve]	
O=C(O)c1ccccc1NC(=S)NC(NC(=O)c1ccccc1[N+](=O)[O-])C(Cl)(Cl)Cl (stereo unspecified)	inconclusive [inhibitor, single point]	
COc1ccc(C2NC(=S)NC3=C2CCc2cc(OC)ccc23)cc1 (stereo unspecified)	inconclusive [inhibitor, partial curve]	
O=C(NCC(=O)N(c1ccccc1)C(C(=O)NC1CCCCC1)c1ccncc1)c1ccco1 (stereo unspecified)	inactive	
COc1ccc2oc(=O)c(-c3ccccc3C(=O)N3CCOCC3)cc2c1	inconclusive [inhibitor, single point]	
O=C(OCn1nnc2ccccc2c1=O)c1ccc2ncsc2c1	inconclusive [inhibitor, single point]	
COc1ccc(CNC(=O)c2ccc(N3CCOCC3)c([N+](=O)[O-])c2)cc1	inactive	
O=C(c1cccc(Cl)c1)C1CCCN(Cc2ccc(N3CCNC3=O)cc2)C1 (stereo unspecified)	inactive	
O=C(O)C1CCCN1S(=O)(=O)c1ccc2ccccc2c1 (stereo unspecified)	inactive	
